Biological target: N6-adenosine-methyltransferase catalytic subunit (Homo sapiens, UniProt Q86U44)
Assay: Inhibition of METTL3 (unknown origin) using UCUGGACUAAA-biotin and 3H-SAM as substrates preincubated for 5 mins followed by substrate addition incubated for 30 mins by TopCount scintillation counting method

Sequence of UniProt Q86U44 (Q86U44 whole entry): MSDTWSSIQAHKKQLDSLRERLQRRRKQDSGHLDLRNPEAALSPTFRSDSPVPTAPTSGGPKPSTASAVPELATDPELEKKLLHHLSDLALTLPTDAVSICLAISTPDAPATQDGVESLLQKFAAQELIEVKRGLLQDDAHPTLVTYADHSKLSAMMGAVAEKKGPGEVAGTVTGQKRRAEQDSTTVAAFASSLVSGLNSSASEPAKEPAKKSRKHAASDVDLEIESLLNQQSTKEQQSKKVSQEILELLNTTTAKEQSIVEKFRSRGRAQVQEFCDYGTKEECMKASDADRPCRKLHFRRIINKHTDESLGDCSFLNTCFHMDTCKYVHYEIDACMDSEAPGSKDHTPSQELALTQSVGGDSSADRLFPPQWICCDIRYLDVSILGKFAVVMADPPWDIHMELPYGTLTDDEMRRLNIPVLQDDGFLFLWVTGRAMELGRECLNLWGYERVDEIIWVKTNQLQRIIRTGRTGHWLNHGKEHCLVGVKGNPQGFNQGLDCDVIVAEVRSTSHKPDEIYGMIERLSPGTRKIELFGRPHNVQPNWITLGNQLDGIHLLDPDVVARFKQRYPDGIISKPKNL

Row | Structure (SMILES) | IC50
1 | Nc1ccc2ccc(CC[C@H]3C[C@@H](n4ccc5c(N)ncnc54)[C@H](O)[C@@H]3O)cc2n1 | ≤ 1000 nM
2 | NC(=O)Nc1cccc(CC[C@H]2C[C@@H](n3ccc4c(N)ncnc43)[C@H](O)[C@@H]2O)c1 | ≥ 1000 nM
3 | Cc1cn([C@@H]2O[C@H](COc3ccc4ccc(N)nc4c3)[C@@H](O)[C@H]2O)c2ncnc(N)c12 | ≥ 1000 nM
4 | CNc1nc2cc(OC[C@H]3O[C@@H](n4cc(-n5ccc(C)n5)c5c(N)ncnc54)C[C@@H]3O)ccc2cc1F | ≥ 1000 nM
5 | Nc1ncnc2c1ccn2[C@@H]1C[C@H](CCc2ccc3[nH]c(=O)[nH]c3c2)[C@@H](O)[C@H]1O | ≥ 1000 nM
6 | Nc1ncnc2c1ccn2[C@@H]1C[C@H](CCc2ccc3cc[nH]c3c2)[C@@H](O)[C@H]1O | ≥ 1000 nM
7 | Nc1ncnc2c1c(-n1cccn1)cn2[C@@H]1C[C@H](CCc2cc3nc(N4CCC4)ccc3cc2F)[C@@H](O)C1 | < 10 nM
8 | Cn1ccc(-c2cn([C@H]3C[C@H](O)[C@@H](COc4ccc5ccc(N6CC(N)C6)nc5c4)O3)c3ncnc(N)c23)n1 | < 10 nM
9 | Nc1cc2cc(CC[C@H]3C[C@@H](n4ccc5c(N)ncnc54)[C@H](O)[C@@H]3O)ccc2cn1 | ≥ 1000 nM
10 | Cn1ccc(-c2cn([C@@H]3O[C@H](COc4ccc5cnc(NC6C7CC6C7)nc5c4)[C@@H](O)[C@@H]3F)c3ncnc(N)c23)n1 (stereo partly drawn) | < 10 nM
11 | Nc1ncnc2c1c(-n1cccn1)cn2C1CC(COc2ccc3ccc(NC4CCC4)nc3c2)C(O)C1F (stereo not drawn) | ≤ 1000 nM
12 | Nc1ncnc2c1ccn2[C@@H]1O[C@H](COc2ccc3ccc(NC4CCC4)nc3c2)[C@@H](O)[C@@H]1F | < 10 nM
13 | CNc1ccc2ccc(OC[C@H]3O[C@@H](n4cc(C)c5c(N)ncnc54)[C@H](O)[C@@H]3O)cc2n1 | ≥ 1000 nM
14 | Cc1cn([C@@H]2O[C@H](COc3ccc4ccc(NCC5CC5)nc4c3)[C@@H](O)[C@H]2O)c2ncnc(N)c12 | ≥ 1000 nM
15 | Cc1nc(N)c2ccn([C@@H]3C[C@H](CCc4ccc5ccc(N)nc5c4)[C@@H](O)[C@H]3O)c2n1 | ≥ 1000 nM
16 | Nc1ncnc2c1ccn2[C@@H]1C[C@H](CCc2ccc3cn[nH]c3c2)[C@@H](O)[C@H]1O | ≥ 1000 nM
17 | CNc1ccc2ccc(OC[C@H]3O[C@@H](n4cc(C5CCC(F)(F)CC5)c5c(N)ncnc54)[C@H](O)[C@@H]3O)cc2n1 | < 10 nM
18 | CCNc1ccc2ccc(CC[C@H]3C[C@@H](n4cc(-n5cccn5)c5c(N)ncnc54)C[C@@H]3O)cc2n1 | < 10 nM
19 | Nc1ncnc2c1ccn2[C@@H]1C[C@H](CCc2ccc3[nH]ccc3c2)[C@@H](O)[C@H]1O | ≥ 1000 nM
20 | CCCC(=O)c1cn([C@@H]2O[C@H](COc3ccc4ccc(NC)nc4c3)[C@@H](O)[C@@H]2F)c2ncnc(N)c12 | ≤ 100 nM
21 | CN(c1ncc2ccc(OC[C@H]3O[C@@H](n4cc(-c5ccn(C)n5)c5c(N)ncnc54)[C@@H](F)[C@@H]3O)cc2n1)C1CCC1 | < 10 nM
22 | Nc1ccc2ccc(OC[C@H]3O[C@@H](n4ccc5c(N)ncnc54)[C@H](O)[C@@H]3O)cc2n1 | ≤ 100 nM
23 | CNc1ccc2ccc(OC[C@H]3O[C@@H](n4cnc5c(N)ncnc54)[C@H](O)[C@@H]3O)cc2n1 | ≤ 100 nM
24 | CCc1cc(N)c2ccc(OC[C@H]3O[C@@H](n4cc(-c5ccn(C)n5)c5c(N)ncnc54)[C@@H](F)[C@@H]3O)cc2n1 | < 10 nM
25 | Cn1ccc(-c2cn([C@@H]3O[C@H](COc4ccc5cnc(C(=O)N6CCC6)nc5c4)[C@@H](O)[C@@H]3F)c3ncnc(N)c23)n1 | ≥ 1000 nM
26 | Cn1ccc(-c2cn([C@@H]3O[C@H](COc4ccc5cnc(N[C@H]6C[C@@H](N)C6)nc5c4)[C@@H](O)[C@@H]3F)c3ncnc(N)c23)n1 | ≤ 100 nM
27 | Nc1ncnc2c1c(-c1cnccn1)cn2[C@@H]1O[C@H](COc2ccc3ccc(N4CCC4)nc3c2)[C@@H](O)[C@@H]1F | < 10 nM

Row | Structure (SMILES) | IC50
28 | Nc1ccc2ccc(NC[C@H]3C[C@@H](n4ccc5c(N)ncnc54)[C@H](O)[C@@H]3O)cc2n1 | ≥ 1000 nM
29 | Nc1ncnc2c1ccn2[C@@H]1C[C@H](CCc2ccc3ccc(NCc4ccccc4)nc3c2)[C@@H](O)[C@H]1O | ≤ 1000 nM
30 | CNc1ccc2cc(CC[C@H]3C[C@@H](n4cc(C)c5c(N)ncnc54)[C@H](O)[C@@H]3O)ccc2n1 | ≤ 1000 nM
31 | Nc1ccc2ccc(CC[C@H]3C[C@@H](n4cc([C@H]5CCOC5)c5c(N)ncnc54)[C@H](O)[C@@H]3O)cc2n1 | ≤ 1000 nM
32 | Nc1ncnc2c1ccn2[C@@H]1C[C@H](CCc2ccc3ccc(NCCO)nc3c2)[C@@H](O)[C@H]1O | ≤ 1000 nM
33 | Nc1ncnc2c1ccn2[C@@H]1C[C@H](CCc2cccc(NC(=O)C3CC3)c2)[C@@H](O)[C@H]1O | ≥ 1000 nM
34 | Nc1ncnc2c1ccn2[C@@H]1C[C@H](CCc2cnc3cccnc3c2)[C@@H](O)[C@H]1O | ≥ 1000 nM
35 | Nc1ncnc2c1ccn2[C@@H]1C[C@H](CCc2ccc3cc(C#Cc4ccccc4)cnc3c2)[C@@H](O)[C@H]1O | ≥ 1000 nM
36 | COc1cccc(CC[C@H]2C[C@@H](n3ccc4c(N)ncnc43)[C@H](O)[C@@H]2O)n1 | ≥ 1000 nM
37 | Cn1ccc(-c2cn([C@H]3C[C@H](O)[C@@H](CCc4ccc5ccc(N6CCC6)nc5c4)O3)c3ncnc(N)c23)n1 | < 10 nM
38 | Cc1cc2c(N)ncnc2n1[C@@H]1C[C@H](CCc2ccc3ccc(N)nc3c2)[C@@H](O)[C@H]1O | ≥ 1000 nM
39 | Nc1ncnc2c1ccn2[C@@H]1C[C@H](CCc2ccc3[nH]ncc3c2)[C@@H](O)[C@H]1O | ≥ 1000 nM
40 | Nc1ncnc2c1ccn2[C@@H]1C[C@H](CCc2ccc3c(OCc4ccccc4)ccnc3c2)[C@@H](O)[C@H]1O | ≥ 1000 nM
41 | Nc1cccc2ccc(CC[C@H]3C[C@@H](n4ccc5c(N)ncnc54)[C@H](O)[C@@H]3O)cc12 | ≥ 1000 nM
42 | Nc1ccc2cc(CC[C@H]3C[C@@H](n4ccc5c(NCCc6ccccc6)ncnc54)[C@H](O)[C@@H]3O)ccc2n1 | ≥ 1000 nM
43 | Nc1ncnc2c1ccn2[C@@H]1C[C@H](CCc2ccc3ccc(Nc4ccccc4)nc3c2)[C@@H](O)[C@H]1O | ≥ 1000 nM
44 | Cc1cc2c(NCCc3ccccc3)ncnc2n1[C@@H]1C[C@H](CCc2ccc3ccc(N)nc3c2)[C@@H](O)[C@H]1O | ≥ 1000 nM
45 | CNc1ncnc2c1ccn2[C@@H]1C[C@H](CCc2ccc3ccc(N)nc3c2)[C@@H](O)[C@H]1O | ≥ 1000 nM
46 | CNc1ccc2ccc(CC[C@H]3C[C@@H](n4cc(C5CCOCC5)c5c(N)ncnc54)[C@H](O)[C@@H]3O)cc2n1 | ≤ 100 nM
47 | Nc1ccc2ccc(CO[C@H]3C[C@@H](n4ccc5c(N)ncnc54)[C@H](O)[C@@H]3O)cc2n1 | < 10 nM
48 | Nc1ncnc2c1ccn2[C@@H]1C[C@H](CCc2cccnc2)[C@@H](O)[C@H]1O | ≥ 1000 nM
49 | CNc1ccc2ccc(OC[C@H]3O[C@@H](n4cc(Br)c5c(N)ncnc54)C[C@@H]3O)cc2n1 | < 10 nM
50 | Nc1ccc2ccc(OC[C@H]3O[C@H](n4ccc5c(N)ncnc54)[C@H](O)[C@@H]3O)cc2n1 | ≥ 1000 nM
51 | Nc1ncnc2c1ccn2[C@@H]1C[C@H](CCc2ccc3scnc3c2)[C@@H](O)[C@H]1O | ≥ 1000 nM
52 | Cn1cc(-c2cn([C@@H]3C[C@H](CCc4ccc5ccc(N)nc5c4)[C@@H](O)[C@H]3O)c3ncnc(N)c23)cn1 | ≤ 1000 nM
53 | Nc1ccc2ccc(CC[C@H]3C[C@@H](n4cc([C@@H]5CCOC5)c5c(N)ncnc54)[C@H](O)[C@@H]3O)cc2n1 | ≤ 1000 nM
